Results: US9005633B2 (priority 2009, dated 2015)

System: DENV-1 West Pac 74
Details: 10 ug/ml psoralen compound, Centri-sep purified
Description: 5 ml aliquots of DENV-1 viral culture supernatant at a concentration of 3.4×10^5 plaque-forming units (PFU)/ml were transferred into 60×15 mm Petri dishes. Four test groups of dishes were made. A single psoralen compound (either AMT, 8-MOP, or TMP) was added to each dish in the first three groups, while the fourth group had no psoralen added and served as control. Dishes were exposed to UVA radiation at 365 nm (UVAB-18 lamp, UltraLum, Inc., Claremont, Calif.) for 0, 1, 5, 10, or 20 minutes at an intensity of 200 or 1000 μW/cm^2. Specimens were then re-titered in BHK cell culture to assess for plaque formation.

[1] = UV-A 200 uW/cm^2, UV time 0 min
[2] = UV-A 200 uW/cm^2, UV time 1 min
[3] = UV-A 200 uW/cm^2, UV time 5 min
[4] = UV-A 200 uW/cm^2, UV time 20 min
[5] = UV-A 1000 uW/cm^2, UV time 0 min
[6] = UV-A 1000 uW/cm^2, UV time 1 min
[7] = UV-A 1000 uW/cm^2, UV time 10 min
[8] = UV-A 1000 uW/cm^2, UV time 20 min
[9] = UV-A 200 uW/cm^2, UV time 10 min
[10] = UV-A 1000 uW/cm^2, UV time 5 min

| Compound | DENV-1 titer (PFU) after psoralen and UV-A [1] | DENV-1 titer (PFU) after psoralen and UV-A [2] | DENV-1 titer (PFU) after psoralen and UV-A [3] | DENV-1 titer (PFU) after psoralen and UV-A [4] | DENV-1 titer (PFU) after psoralen and UV-A [5] | DENV-1 titer (PFU) after psoralen and UV-A [6] | DENV-1 titer (PFU) after psoralen and UV-A [7] | DENV-1 titer (PFU) after psoralen and UV-A [8] | DENV-1 titer (PFU) after psoralen and UV-A [9] | DENV-1 titer (PFU) after psoralen and UV-A [10] |
| --- | --- | --- | --- | --- | --- | --- | --- | --- | --- | --- |
| Cc1oc2c(C)c3oc(=O)cc(C)c3cc2c1CN.Cl [AMT, 4′-Aminomethyltrioxsalen hydrochloride] | 1.92 × 10^5 PFU/ml | 4.32 × 10^4 PFU/ml | 1.70 × 10^2 PFU/ml | 0 PFU/ml | 1.92 × 10^5 PFU/ml | 90 PFU/ml | 0 PFU/ml | 0 PFU/ml |  |  |
| Cc1cc2cc3c(C)cc(=O)oc3c(C)c2o1 [TMP, 4,5′,8-Trimethylpsoralen] | 4.86 × 10^5 PFU/ml | 3.33 × 10^5 PFU/ml | 1.47 × 10^5 PFU/ml | 2.24 × 10^4 PFU/ml | 4.86 × 10^5 PFU/ml | 1.54 × 10^5 PFU/ml | 40 PFU/ml | 0 PFU/ml | 8.64 × 10^4 PFU/ml | 4.60 × 10^3 PFU/ml |
| COc1c2occc2cc2ccc(=O)oc12 [8-MOP, 8-Methoxypsoralen] | 6.14 × 10^5 PFU/ml | 4.35 × 10^5 PFU/ml | 2.94 × 10^5 PFU/ml | 1.66 × 10^5 PFU/ml | 6.14 × 10^5 PFU/ml | 3.46 × 10^5 PFU/ml | 5.12 × 10^4 PFU/ml | 6.00 × 10^3 PFU/ml | 2.18 × 10^5 PFU/ml | 1.09 × 10^5 PFU/ml |

Read-outs that look alike come from different tables or passages of the source.
